# In PubChem BioAssay AID504332 (National Center for Advancing Translational Sciences (NCATS), 2011):
# The campaign covered roughly 350,000 compounds. About 31,000 (8.9%) were called active. Inconclusive means that the source gave no clear call. Such entries were picked first, then a sample of the others. The call rests on the fitted dose curve; in most records, active means well fitted inhibition curve with a large enough effect; inconclusive means small, poorly fitted or top-dose-only effect; inactive means no such curve, though single readings can be large or run the other way. Potencies beside an inconclusive call are fits to weak or partial responses and may not hold up.
# Biological target: Histone-lysine N-methyltransferase EHMT2 (Homo sapiens) (UniProt Q96KQ7)
# Chain of UniProt Q96KQ7 (Q96KQ7 whole entry, looked up): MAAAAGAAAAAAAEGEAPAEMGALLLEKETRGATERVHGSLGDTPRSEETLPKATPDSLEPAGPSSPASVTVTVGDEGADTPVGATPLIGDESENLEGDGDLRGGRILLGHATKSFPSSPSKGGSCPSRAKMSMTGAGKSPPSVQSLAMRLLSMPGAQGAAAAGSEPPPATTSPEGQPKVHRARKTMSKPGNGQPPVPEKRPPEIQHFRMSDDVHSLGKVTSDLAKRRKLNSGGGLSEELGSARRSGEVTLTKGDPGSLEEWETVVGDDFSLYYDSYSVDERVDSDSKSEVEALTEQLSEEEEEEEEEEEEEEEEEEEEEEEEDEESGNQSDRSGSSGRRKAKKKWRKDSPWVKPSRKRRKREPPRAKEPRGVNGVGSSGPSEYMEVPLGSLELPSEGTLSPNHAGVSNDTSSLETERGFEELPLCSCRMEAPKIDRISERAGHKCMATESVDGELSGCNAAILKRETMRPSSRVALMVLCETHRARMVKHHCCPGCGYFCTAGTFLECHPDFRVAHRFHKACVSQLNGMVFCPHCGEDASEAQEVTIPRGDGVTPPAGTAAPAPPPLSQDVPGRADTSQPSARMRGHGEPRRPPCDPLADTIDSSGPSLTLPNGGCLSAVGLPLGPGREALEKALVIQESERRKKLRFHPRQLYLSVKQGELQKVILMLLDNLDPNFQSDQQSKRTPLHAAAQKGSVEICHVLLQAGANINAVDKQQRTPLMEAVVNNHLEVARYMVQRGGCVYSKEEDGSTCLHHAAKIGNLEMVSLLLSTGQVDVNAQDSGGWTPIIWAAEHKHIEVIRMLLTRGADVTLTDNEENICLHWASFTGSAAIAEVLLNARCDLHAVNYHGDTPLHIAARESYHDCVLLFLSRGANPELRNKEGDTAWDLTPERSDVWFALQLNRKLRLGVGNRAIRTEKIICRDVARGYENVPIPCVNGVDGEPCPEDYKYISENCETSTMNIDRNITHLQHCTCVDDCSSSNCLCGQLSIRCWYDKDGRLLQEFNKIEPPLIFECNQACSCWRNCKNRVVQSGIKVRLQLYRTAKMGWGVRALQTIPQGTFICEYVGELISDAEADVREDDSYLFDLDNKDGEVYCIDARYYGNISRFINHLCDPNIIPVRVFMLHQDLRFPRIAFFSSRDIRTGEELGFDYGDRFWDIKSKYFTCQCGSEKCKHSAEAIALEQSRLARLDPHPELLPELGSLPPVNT
# Assay: qHTS Assay for Inhibitors of Histone Lysine Methyltransferase G9a; further: nearly all actives have a fitted effect of over 75% in size
# Conditions: G9a H3K9 monomethylation, AlphaScreen, 2 h; activity, negative = inhibition: at 59 µM (top of the series) unless noted
# Procedure, shortened: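 Using a bead-based AlphaScreen, monomethylated H3K9 product from 2 h room-temperature reactions (G9a 20 nM, peptide 500 nM, SAM 20 uM) was detected with 0.5 ug/mL rabbit anti-H3K9me1 antibody.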
# On the % scale 0 is the no-effect control and ±100 the full control effect; potency means the concentration at half of the fitted maximal effect; tags describe the fitted curve by direction and shape.
SMILES,Potency,"activity, negative = inhibition"
O=C1c2ccccc2NC(c2ccc(O)c(O)c2)N1c1ccccc1Cl (stereo not drawn),active: 44.7 µM,–
CCOC(=O)C1CCCN(c2c(NCCN3CCCCC3CC)c(=O)c2=O)C1 (stereo not drawn),inactive,–
Cc1nn(CCC(=O)NCCc2ccccc2Cl)c(=O)c2nn(-c3ccccc3)c(C)c12,inactive,–
Fc1ccccc1-n1ncc2c1ncn1nc(COc3ccc(Cl)cc3)nc21,inactive,–
Cc1cc(OCCCN2CCN(Cc3ccccc3)CC2)ccc1[N+](=O)[O-],active: 8.91 µM,–
O=C1CC(c2nnc(Cc3ccc(F)cc3)o2)CN1c1ccccc1 (stereo not drawn),inactive,–
COC(=O)C1=C(C)N(CCCC(=O)O)C(=O)NC1c1cccs1 (stereo not drawn),"inconclusive: 89.1 µM [inhibitor, single point]",–
O=C(NCCc1ccc(Cl)cc1)C1CCCN1C(=O)Nc1ccccc1 (stereo not drawn),inactive,–
CN(C)c1ccnc2sc(C(=O)NCc3ccccc3)c(N)c12,"inconclusive: 3.16 µM [inhibitor, partial curve, poor fit]",–
Nc1nccnc1C(=O)OCC(=O)c1ccc[nH]1,active: 50.1 µM,–
Cc1ccc(S(=O)(=O)Nc2cccc(-c3ccc(N4CCCCCC4)nn3)c2)c(C)c1,–,inactive: 18.2% [at 0.501 µM]
Cc1ccc(C(=O)NNC(=O)c2ccc3ncccc3c2)cc1,–,inactive: 24.3% [at 12.7 µM]
COc1ccccc1-c1cc2ccccc2[nH]1,"inconclusive: 39.8 µM [inhibitor, single point]",–
CC(Nc1oc(-c2ccco2)nc1C#N)c1ccccc1 (stereo not drawn),"inconclusive: 25.1 µM [inhibitor, single point]",–
COc1ccccc1NC(=O)c1sc2nc(C)c(C(=O)Nc3ccc(Cl)cc3)c(-c3ccc(Br)cc3)c2c1N,inactive,–
O=C(CCc1c[nH]c2ccccc12)N1CCN(c2ccc(O)cc2)CC1,active: 35.5 µM,–
C=CCn1c(CCC(O)CCCCC)n[nH]c1=S (stereo not drawn),active: 7.08 µM,–
Cc1cc(C)c(-c2csc(NC(=O)C3=COCCO3)n2)cc1C,"inconclusive: 44.7 µM [inhibitor, partial curve]",–
COc1ccccc1NS(=O)(=O)NC(=O)c1cn(C)c2ccccc12,"inconclusive: 79.4 µM [inhibitor, single point]",–
Cc1nn(C)cc1C1Nc2ccccc2C(=O)N1O (stereo not drawn),"inconclusive: 31.6 µM [inhibitor, single point]",–
CCC1CCCCN1C(=S)NC(=O)c1cccs1 (stereo not drawn),"inconclusive: 44.7 µM [inhibitor, partial curve, poor fit]",–
O=S(=O)(Nn1c(O)c(C=C2N=c3ccccc3=N2)sc1=S)c1ccccc1,"inconclusive: 28.2 µM [inhibitor, single point]",–
CC(C)(C)C1CCC(=NNC(=O)CN(c2ccccc2)S(C)(=O)=O)CC1 (stereo not drawn),"inconclusive: 39.8 µM [inhibitor, single point]",–
CC(C)NC(=O)Cc1csc2nc(-c3ccccc3)cn12,inactive,–
O=C1C(=O)N(CCCn2ccnc2)C(c2cccc(Br)c2)/C1=C(\O)c1ccc2c(c1)OCCO2 (stereo not drawn),"inconclusive: 56.2 µM [inhibitor, partial curve, poor fit]",–

SMILES,Potency,"activity, negative = inhibition"
Cc1cc(C(=O)CSc2nnc(-c3ccncc3)n2-c2ccccc2)c(C)n1C,"inconclusive: 89.1 µM [inhibitor, single point]",–
CCc1ccccc1N1CC(c2nc3ccccc3n2CCCCOc2ccccc2OC)CC1=O (stereo not drawn),"inconclusive: 31.6 µM [inhibitor, partial curve, poor fit]",–
CN1CCCN(Cc2nc(-c3cccc(C(F)(F)F)c3)no2)CC1,"inconclusive: 79.4 µM [inhibitor, single point]",–
CC(C)c1cnc2c(c1SCc1ccc([N+](=O)[O-])cc1)c(=O)n(C)c(=O)n2C,"inconclusive: 12.6 µM [inhibitor, partial curve, poor fit]",–
O=C(CSc1nnc(-c2ccc(Cl)cc2)n1Cc1ccco1)c1cccs1,–,inconclusive: -88.6% [inhibitor]
Cc1cccc(N2CCN(CC(=O)NCC3CCCCC3)CC2)c1C,active: 28.2 µM,–
CCOc1ccc(NS(=O)(=O)c2ccc3[nH]cc(C(=O)N4CCCC4)c(=O)c3c2)cc1,"inconclusive: 25.1 µM [inhibitor, partial curve, poor fit]",–
CCOc1cccc(NC(=O)c2ccc(S(=O)(=O)N(C)C)cc2)c1,"inconclusive: 35.5 µM [inhibitor, partial curve, poor fit]",–
C=CCn1c(N)c(C(=O)NCCC2=CCCCC2)sc1=S,–,inconclusive: -130% [inhibitor]
CCN(CC)C(=O)CSc1nc(O)c(Cc2ccccc2)c(=O)n1-c1ccc(C)cc1,"inconclusive: 89.1 µM [inhibitor, single point]",–
O=C1C(=Cc2ccco2)C(=O)c2ccccc21,active: 12.6 µM,–
CCCOc1ccc(C2C(C(=O)c3cc4ccccc4o3)=C(O)C(=O)N2c2cc(C)on2)cc1 (stereo not drawn),active: 31.6 µM,–
COc1ccccc1Cn1c(-c2ccccc2OC)nc2ccccc21,"inconclusive: 39.8 µM [inhibitor, partial curve, poor fit]",–
O=C(Oc1ccccc1Cl)c1ccccc1P(=O)(O)O,"inconclusive: 89.1 µM [inhibitor, single point]",–
CC(=O)N1CCN(CC(=O)Nc2cc([N+](=O)[O-])ccc2Cl)CC1,active: 39.8 µM,–
CCN(CC)c1ccc(S(=O)(=O)N2CCOCC2)cc1NC(=O)CSc1nncn1C,–,inconclusive: -127% [inhibitor] [at 12.7 µM]
COc1cccc(N2C(=O)CC(N3CCC(C(N)=O)(N4CCCCC4)CC3)C2=O)c1 (stereo not drawn),"inconclusive: 39.8 µM [inhibitor, single point]",–
C=CCNC(=O)c1c(C(F)(F)F)nn(C)c1Cl,inactive,–
CCc1noc(C)c1C(=O)NNC(=O)c1cc(OC)cc(OC)c1,–,inactive: -24.8% [at 2.33 µM]
Cc1cc(O)c2ccccc2c1O,"inconclusive: 17.8 µM [inhibitor, single point]",–
CCSC1=C(C#N)C2(CCCC2)C(C#N)=C(N)N1,active: 20 µM,–
COc1ccccc1Nc1nc(-c2c(C)nc3ncccn23)cs1,"inconclusive: 56.2 µM [inhibitor, partial curve, poor fit]",–
CN(C)S(=O)(=O)c1ccc(SCC(=O)N2CC(=O)Nc3ccccc32)nc1,"inconclusive: 8.91 µM [inhibitor, single point]",–
Nc1nc(=S)n(-c2ccccc2)[nH]1,active: 10 µM,–
COc1cnc(-c2ccccn2)nc1NC(C)C,active: 56.2 µM,–

SMILES,Potency,"activity, negative = inhibition"
CCOc1cc(C2C(C(C)=O)=C(O)C(=O)N2CCc2c[nH]c3ccccc23)ccc1O (stereo not drawn),"inconclusive: 28.2 µM [inhibitor, full curve]",–
COc1ccc(NS(=O)(=O)c2ccc(C(=O)OC(C)C(=O)N3CCOCC3)cc2)cc1 (stereo not drawn),"inconclusive: 35.5 µM [inhibitor, partial curve, poor fit]",–
COc1cc2c(C(=O)O)c(C)n(C)c2c2ccccc12,"inconclusive: 3.16 µM [inhibitor, partial curve, poor fit]",–
Cc1cccc(-c2noc(-c3cccnc3NCc3ccccc3Cl)n2)c1,inactive,–
CN(C)CCCNc1oc(-c2ccc(Cl)cc2)nc1C#N,"inconclusive: 22.4 µM [inhibitor, single point]",–
O=C1CC(c2ccc(O)c(O)c2)Oc2c1ccc(O)c2O (stereo not drawn),inactive,–
Cc1nnc(SCC(=O)Nc2ccc(Cl)cn2)n1Cc1ccccc1,inactive,–
CC(=O)CSc1nnc2cc(C)c3ccccc3n12,"inconclusive: 39.8 µM [inhibitor, partial curve, poor fit]",–
COc1ccccc1-c1nc2c3ccccc3nc(=S)n2[nH]1,"inconclusive: 31.6 µM [inhibitor, partial curve, poor fit]",–
Cc1ccc2nc(-c3ccccc3O)c(Nc3ccc4c(c3)OCCO4)n2c1,"inconclusive: 89.1 µM [inhibitor, single point]",–
O=C1OCCC1Sc1nnc(-c2ccc3c(c2)OCO3)n1-c1ccccc1 (stereo not drawn),"inconclusive: 31.6 µM [inhibitor, single point]",–
COc1ccc(NC(=O)COC(=O)CC23CC4CC(CC(C4)C2)C3)c([N+](=O)[O-])c1,"inconclusive: 25.1 µM [inhibitor, single point]",–
CCCCOc1ccc(NC(=O)CSc2ccc(C(=O)O)cn2)cc1,inactive,–
CN1CCN(C(=O)C2CCCN(S(=O)(=O)c3ccc(Cl)cc3)C2)CC1 (stereo not drawn),active: 10 µM,–
Oc1ccc2cc(Br)ccc2c1CN1CCCC1,"inconclusive: 44.7 µM [inhibitor, partial curve, poor fit]",–
Cc1ccc2nc(SCC(=O)Nc3ccc4[nH]c(=O)[nH]c4c3)[nH]c2c1,active: 7.94 µM,–
CC1CC(=O)Nc2ccccc2N1C(=O)CSc1nnnn1C(C)C (stereo not drawn),"inconclusive: 14.1 µM [inhibitor, single point]",–
CCOc1ccccc1NC(=O)c1ccc(NC(=O)C2CCCO2)cc1 (stereo not drawn),inactive,–
Cc1c(C(=O)NCc2ccco2)oc2ccc(Br)cc12,"inconclusive: 56.2 µM [inhibitor, partial curve]",–
CCOc1cc(C2C(C(=O)c3ccc(C)o3)=C(O)C(=O)N2CCc2ccccc2)ccc1O (stereo not drawn),active: 44.7 µM,–
O=C1NC(=S)SC1=C1CCCCCC1,"inconclusive: 56.2 µM [inhibitor, single point]",–
CCN1CCN(C(=O)N(CC(=O)Nc2ccc(C(N)=O)cc2)S(=O)(=O)c2ccc(C)cc2)CC1,inactive,–
C(/CCc1ccccc1)=N\Nc1nc2ccccc2[nH]1,"inconclusive: 79.4 µM [inhibitor, single point]",–
